Assay results reported in paper PMC7589491, “Biomimetic Artificial Membrane Permeability Assay over Franz Cell Apparatus Using BCS Model Drugs” (Pharmaceutics, 2020).

Assays:
[1] = cited from earlier work
[2] = Franz–PAMPA permeation study (lipid-impregnated artificial membrane on Franz cells)
[3] = pH 7.4; cited from earlier work
Caco-2 cells = details: cited from earlier work
[4] = pH 7.4, Papp Franz–PAMPA, PBS pH 7.4, 37 °C, 500 rpm, 12 h, n = 3, best fit of linear portion (sink equation)
[5] = pH 7.4, Papp Non-Sink Arthurson, Franz–PAMPA data, non-sink equation

Papp at 12 h, 10 mg/mL [2, 4] [×10⁻⁶ cm/s]	Papp at 12 h, 10 mg/mL [2, 5] [×10⁻⁶ cm/s]	Compound	Papp Corti [1] [×10⁻⁶ cm/s]	Papp PAMPA pH 7,4 [3]	Papp Caco-2 (Caco-2 cells) [×10⁻⁶ cm/s]
25.8	22	CC(C)NCC(O)COc1ccc(CC(N)=O)cc1 (stereo not shown) [Atenolol]	20.9	–	–
–	–	NS(=O)(=O)c1cc(C(=O)O)c(NCc2ccco2)cc1Cl [Furosemide]	27.5	0.6 × 10^−6 cm/s	0.1
2.89	1.7	COc1ccc2cc([C@H](C)C(=O)O)ccc2c1 [Naproxen]	–	10.6 × 10^−6 cm/s	39.5
